No constants are given. Whether binding was seen depends on the method and setting. Binding seen in cells or lysates may run through a third protein. Some entries that bind do so weakly or less than the wild type. For some of these results: Tags and fused reporters may be left off the sequences shown.
T1: C-YFP:TSWV N (tomato spotted wilt virus) (UniProt P25999)
T1 sequence: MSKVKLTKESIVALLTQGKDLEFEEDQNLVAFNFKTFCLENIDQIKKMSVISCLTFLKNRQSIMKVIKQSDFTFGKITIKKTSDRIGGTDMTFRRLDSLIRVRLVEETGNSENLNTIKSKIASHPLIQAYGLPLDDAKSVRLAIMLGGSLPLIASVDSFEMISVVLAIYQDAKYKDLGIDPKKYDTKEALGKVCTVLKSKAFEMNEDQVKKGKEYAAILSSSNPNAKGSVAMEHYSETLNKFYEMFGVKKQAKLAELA

By UniProt entry, the sequences of proteins in these tests, tags left out.
UniProt Q1KZ54: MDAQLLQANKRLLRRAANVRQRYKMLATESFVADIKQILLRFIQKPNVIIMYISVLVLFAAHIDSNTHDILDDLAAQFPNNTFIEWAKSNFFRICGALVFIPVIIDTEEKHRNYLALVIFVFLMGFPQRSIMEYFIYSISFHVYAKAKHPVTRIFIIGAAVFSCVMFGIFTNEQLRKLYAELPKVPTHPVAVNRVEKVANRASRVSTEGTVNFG
UniProt Q1KZ55: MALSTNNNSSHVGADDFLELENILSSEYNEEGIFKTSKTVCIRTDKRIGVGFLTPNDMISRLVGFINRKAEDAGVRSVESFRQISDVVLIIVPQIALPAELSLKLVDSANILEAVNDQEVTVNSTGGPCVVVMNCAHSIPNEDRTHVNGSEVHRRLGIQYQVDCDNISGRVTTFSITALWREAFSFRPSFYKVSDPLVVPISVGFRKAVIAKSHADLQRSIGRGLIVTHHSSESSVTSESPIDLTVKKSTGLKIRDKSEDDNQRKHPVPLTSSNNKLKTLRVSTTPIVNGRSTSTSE
UniProt Q1KZ57: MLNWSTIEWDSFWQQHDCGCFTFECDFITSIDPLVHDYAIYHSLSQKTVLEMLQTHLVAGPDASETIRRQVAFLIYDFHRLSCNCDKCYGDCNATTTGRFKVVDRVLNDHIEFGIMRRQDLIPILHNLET

B1: N-YFP:TSWV N (protein, UniProt P25999 1-258)
chain: T1 sequence

Legend:
Assay in all cases: split reporter; BiFC with N-YFP and C-YFP halves fused to the N- or C-terminus of each protein; pairs transiently co-expressed in N. benthamiana leaves by agroinfiltration (OD600 = 0.4); 23°C day 18°C night; fluorescence reconstitution observed at 4 days post-infiltration by confocal microscopy; grades –, +, ++, +++ = absent, low, medium, high fluorescence
[1] = target: p24:N-YFP (citrus leprosis virus C) (UniProt Q1KZ54)
[2] = target: N-YFP:p24 (citrus leprosis virus C) (UniProt Q1KZ54)
[3] = target: C-YFP:MP (citrus leprosis virus C) (UniProt Q1KZ55)
[4] = target: MP:C-YFP (citrus leprosis virus C) (UniProt Q1KZ55)
[5] = target: p24:C-YFP (citrus leprosis virus C) (UniProt Q1KZ54)
[6] = target: C-YFP:p24 (citrus leprosis virus C) (UniProt Q1KZ54)
[7] = target: p15:C-YFP (citrus leprosis virus C) (UniProt Q1KZ57)
[8] = target: C-YFP:p15 (citrus leprosis virus C) (UniProt Q1KZ57)
[9] = target: T1, C-YFP:TSWV N (tomato spotted wilt virus)

Row | Molecule | binding [1] | binding [2] | binding [5] | binding [6] | further results
1 | C-YFP:MP (from UniProt Q1KZ55 1-297) | no binding | no binding | – | – | –
2 | C-YFP:p15 (from UniProt Q1KZ57 1-130) | no binding | no binding | – | – | –
3 | MP:C-YFP (from UniProt Q1KZ55 1-297) | no binding | no binding | – | – | –
4 | MP:N-YFP (from UniProt Q1KZ55 1-297) | – | – | no binding | no binding | binding [3]: no binding; binding [4]: no binding
5 | N-YFP:MP (from UniProt Q1KZ55 1-297) | – | – | no binding | no binding | binding [3]: no binding; binding [4]: no binding
6 | N-YFP:p15 (from UniProt Q1KZ57 1-130) | – | – | no binding | no binding | binding [7]: binds; binding [8]: binds
7 | p15:C-YFP (from UniProt Q1KZ57 1-130) | no binding | no binding | – | – | –
8 | p15:N-YFP (from UniProt Q1KZ57 1-130) | – | – | no binding | no binding | binding [7]: binds; binding [8]: binds
9 | B1 | – | – | – | – | binding [9]: binds
